Data as given in a collection of fitness landscapes (doi:10.1016/j.celrep.2020.107928).
In all, about 81,000 sequences were measured (“one-hybrid fitness for binding parS DNA”: median about -0.17, highest 2% from about 0.51 on). Some of the results follow.

B1: Caulobacter ParB omega fusion; a variant is named by its letters at X, in order, B8GW30 (parent)
chain: MESVVVGEPGMSEGRRGLGRGLSALLGEVDAAPAQAPGEQLGGSREAPIEILQRNPDQPRRTFREEDLEDLSNSIREKGVLQPILVRPSPDTAGEYQIVAGERAWRAAQRAGLKTVPIMVRELDDLAVLEIGIIENVQRADLNVLEEALSYKVLMEKFERTQENIAQTIGKSXSHVANXMRLLXLPDEVQSYLVSGELTAXHARAIAAAADPVALAKQIIEGGLSVRETEALARKAPNLSAGKSKGGRPPRVKDTDTQALESDLSSVLGLDVSIDHRGSTGTLTITYATLEQLDDLCNRLTRGI

Variants of: B1
Assay: one-hybrid fitness for binding parS DNA (scaled: cognate 1, non-cognate 0); higher = stronger binding
Conditions: with parS DNA site
Procedure, shortened: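 Caulobacter ParB libraries with four specificity codons randomised were screened by bacterial one-hybrid selection in the E. coli USO strain, using a HIS3 reporter whose site lies 19 bp from the promoter. Selection ran for 48 hours at 37°C on M9 lacking histidine, with 0.1 mM IPTG and 5 mM 3-AT. Plasmids were Illumina-sequenced before and after selection, three replicate libraries were pooled, and variants with under 10 reads were dropped. Fitness is the log change in each variant's read ratio to wild type, rescaled against the cognate and non-cognate sites.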

Variant | one-hybrid fitness for binding parS DNA
WFHG | ≤ 0.2
AVFN | ≤ 0.2
KFPT | ≤ 0.2
QIIA | ≤ 0.2
KRGY | ≤ 0.2
NKKC | ≤ 0.2
ASIN | ≤ 0.2
QQNW | ≤ 0.2
LPNY | ≤ 0.2
HYRN | ≤ 0.2
MMPS | ≤ 0.2
ANPL | ≤ 0.2
MALM | ≤ 0.2
TYHY | ≤ 0.2
GSLR | ≤ 0.2
IQLW | ≤ 0.2
TIHA | ≤ 0.2
RTEK | ≤ 0.2
RFAF | ≤ 0.2
VISC | ≤ 0.2
IKGT | ≤ 0.2
LAWR | ≤ 0.2
DPER | ≤ 0.2
GVLF | ≤ 0.2
EEAS | ≤ 0.2
AQEG | ≤ 0.2

Variant | one-hybrid fitness for binding parS DNA
QGIY | ≤ 0.2
PSET | ≤ 0.2
NEDC | ≤ 0.2
KREV | ≤ 0.2
YCHR | ≤ 0.2
IDNF | ≤ 0.2
NWSR | ≤ 0.2
TTSN | ≤ 0.2
PLCD | ≤ 0.2
MQNE | ≤ 0.2
RRDS | 0.743
ETSV | ≤ 0.2
KYCG | ≤ 0.2
PLII | ≤ 0.2
APAA | ≤ 0.2
QKVA | ≤ 0.2
KVGM | ≤ 0.2
NFDN | ≤ 0.2
WACP | ≤ 0.2
PPLK | ≤ 0.2
SFGC | ≤ 0.2
SCSC | ≤ 0.2
PSFF | ≤ 0.2
HMTN | ≤ 0.2
ELPC | ≤ 0.2
RIYH | ≤ 0.2

Variant | one-hybrid fitness for binding parS DNA
MNTM | ≤ 0.2
CTDF | ≤ 0.2
PIKV | ≤ 0.2
RADD | ≤ 0.2
YSEV | ≤ 0.2
RYHY | 0.423
LQWG | ≤ 0.2
KPKS | ≤ 0.2
KSIH | ≤ 0.2
ARQV | ≤ 0.2
RNCS | 0.83
PSAH | ≤ 0.2
QWDT | ≤ 0.2
CNKV | ≤ 0.2
SGRC | ≤ 0.2
SPPQ | ≤ 0.2
RLPV | ≤ 0.2
PNFF | ≤ 0.2
AMEY | ≤ 0.2
YCLG | ≤ 0.2
SKTG | ≤ 0.2
NWHR | ≤ 0.2
GAKE | ≤ 0.2
TELP | ≤ 0.2
EINT | ≤ 0.2
QPKM | ≤ 0.2

Variant | one-hybrid fitness for binding parS DNA
TSLC | ≤ 0.2
RHYM | 0.325
YLYT | ≤ 0.2
TRHI | ≤ 0.2
QNAG | ≤ 0.2
PRCR | ≤ 0.2
RMQD | 0.318
KIRT | ≤ 0.2
LDHS | ≤ 0.2
QQCI | ≤ 0.2
QSLQ | ≤ 0.2
RKPG | 0.552
MMHF | ≤ 0.2
DTVD | ≤ 0.2
LDYM | ≤ 0.2
QYID | ≤ 0.2
HWRR | ≤ 0.2
SGGT | ≤ 0.2
GPER | ≤ 0.2
GHRT | ≤ 0.2
LLTM | ≤ 0.2
RQDY | 0.421
GGKR | ≤ 0.2
EFTE | ≤ 0.2
LQRY | ≤ 0.2
VDSC | ≤ 0.2

Variant | one-hybrid fitness for binding parS DNA
AKMG | ≤ 0.2
GHPW | ≤ 0.2
YMRE | ≤ 0.2
YTSE | ≤ 0.2
LGIY | ≤ 0.2
GYLL | ≤ 0.2
THDV | ≤ 0.2
NYGF | ≤ 0.2
WTGC | ≤ 0.2
LGND | ≤ 0.2
SPFF | ≤ 0.2
HMMD | ≤ 0.2
RFKG | 0.988
CWIY | ≤ 0.2
KLWR | ≤ 0.2
QAMT | ≤ 0.2
CSLS | ≤ 0.2
GDRI | ≤ 0.2
YSDY | ≤ 0.2
LWRV | ≤ 0.2
MALL | ≤ 0.2
FGHV | ≤ 0.2
YHHV | ≤ 0.2
PLTG | ≤ 0.2
ENPR | ≤ 0.2
KVFK | ≤ 0.2

Variant | one-hybrid fitness for binding parS DNA
VNLW | ≤ 0.2
QRDN | ≤ 0.2
GDIR | ≤ 0.2
EWTC | ≤ 0.2
WMNR | ≤ 0.2
ERDC | ≤ 0.2
CPAS | ≤ 0.2
QIHA | ≤ 0.2
FWNV | ≤ 0.2
AAPM | ≤ 0.2
SIFR | ≤ 0.2
DAVF | ≤ 0.2
FTSS | ≤ 0.2
PYVN | ≤ 0.2
CQDS | ≤ 0.2
WKMS | ≤ 0.2
QSCV | ≤ 0.2
AYNK | ≤ 0.2
AARE | ≤ 0.2
QQCL | ≤ 0.2
VPIG | ≤ 0.2
QPPL | ≤ 0.2
TPKA | ≤ 0.2
